In publication PMC4336329 (PLoS ONE, 2015):
Out of some 310,000 compounds screened, about 14,000 (4.5%) showed an effect of 50% or more. The effect is printed as a negative number. Some of the results follow.

What follows are compounds tested against human ether-à-go-go-related gene (hERG) potassium channel (human, UniProt Q12809) (assay: primary screen, population patch clamp on CHO cells stably expressing hERG).
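Further: peak tail current of the secondary pulse compared with the same well before compound.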

human ether-à-go-go-related gene (hERG) potassium channel, sequence (Q12809 whole entry, looked up): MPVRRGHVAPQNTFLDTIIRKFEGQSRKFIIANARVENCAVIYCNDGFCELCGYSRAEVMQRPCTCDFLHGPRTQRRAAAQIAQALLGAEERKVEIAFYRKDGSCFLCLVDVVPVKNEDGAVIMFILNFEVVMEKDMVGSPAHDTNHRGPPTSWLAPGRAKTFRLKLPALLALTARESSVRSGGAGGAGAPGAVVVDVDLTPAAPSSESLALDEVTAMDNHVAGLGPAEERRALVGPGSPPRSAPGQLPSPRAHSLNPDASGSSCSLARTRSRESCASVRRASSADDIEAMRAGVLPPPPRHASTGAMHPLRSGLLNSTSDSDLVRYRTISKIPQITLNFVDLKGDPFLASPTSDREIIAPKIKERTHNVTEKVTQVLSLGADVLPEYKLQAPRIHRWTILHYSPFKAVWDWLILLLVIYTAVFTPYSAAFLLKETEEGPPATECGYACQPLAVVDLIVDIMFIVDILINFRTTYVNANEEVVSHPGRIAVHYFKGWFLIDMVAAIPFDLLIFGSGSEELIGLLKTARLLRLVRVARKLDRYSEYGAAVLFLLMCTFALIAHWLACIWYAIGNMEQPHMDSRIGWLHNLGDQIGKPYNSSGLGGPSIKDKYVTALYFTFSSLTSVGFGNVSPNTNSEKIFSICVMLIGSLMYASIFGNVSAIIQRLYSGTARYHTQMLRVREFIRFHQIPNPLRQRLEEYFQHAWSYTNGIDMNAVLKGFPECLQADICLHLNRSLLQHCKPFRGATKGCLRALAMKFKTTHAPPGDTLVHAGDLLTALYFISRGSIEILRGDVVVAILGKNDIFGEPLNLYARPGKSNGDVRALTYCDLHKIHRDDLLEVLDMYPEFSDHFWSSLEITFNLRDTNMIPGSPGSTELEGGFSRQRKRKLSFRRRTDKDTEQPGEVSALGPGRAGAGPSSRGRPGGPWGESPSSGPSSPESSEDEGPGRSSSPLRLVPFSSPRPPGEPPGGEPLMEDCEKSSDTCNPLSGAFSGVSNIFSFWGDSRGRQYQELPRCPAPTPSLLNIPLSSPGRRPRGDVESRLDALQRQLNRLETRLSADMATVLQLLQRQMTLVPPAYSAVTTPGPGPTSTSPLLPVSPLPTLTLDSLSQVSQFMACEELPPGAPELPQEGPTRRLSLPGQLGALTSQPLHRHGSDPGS

SMILES	hERG current change (%, negative = inhibition) at 10uM [%]
Cc1cccc2sc(NC(=O)CN3C(=O)NC4(CCCC4)C3=O)nc12	-16.3
Cc1ccc(CN2CCN(/N=C\C(Br)=C\c3ccccc3)CC2)cc1	-14.9
NC1=NC(=O)C(Cc2ccc(Br)cc2)S1 (stereo not shown)	14.8
O=C(C1CC1)N(Cc1nc2ccccc2c(=O)[nH]1)Cc1cccs1	-6.11
Cc1c(N(C)S(=O)(=O)c2cccc(C(=O)NC(C)C)c2)c(=O)n(-c2ccccc2)n1C	26.7
COc1ccc(-c2nc3c(c(=O)[nH]c(=O)n3Cc3ccccc3)n2CCO)cc1	21.2
O=C(CN(Cc1ccccc1Cl)C(=O)Cn1nnc(-c2cccs2)n1)NCC1CCCO1 (stereo not shown)	-12.3
CCOC(=O)N(c1ccccc1)P1(=S)OCC(C)O1 (stereo not shown)	14.6
Cc1ccccc1C(OCC(O)CN1CCN(CCO)CC1)c1ccccc1.O=C(O)C(=O)O (stereo not shown)	-12.1
Cc1nn(-c2ccccc2)c2sc(C(=O)NC3CC3)cc12	-1.38
O=C(NCCCN1CCOCC1)c1ccc2c(c1)N(Cc1cccc(Cl)c1)C(=O)CS2	-16.7
Cc1nnsc1C(=O)N1CCN(c2ccc(C#N)cn2)CC1	-25.2
CCN(CC)S(=O)(=O)c1ccc(Cl)c(NC(=S)NC(=O)C2CCCC2)c1	4.83
CCOc1cccc2cc(C(=O)N3CCN(C/C=C/c4ccccc4)CC3)c(=O)oc12	-28.8
COCC(=O)N1CCC(Oc2ccc(C(=O)NCc3cc(C(C)C)no3)cc2)CC1	-2.22
CCOc1ccc(S(=O)(=O)NNS(=O)(=O)c2ccc(C)cc2C)cc1	13.4
NS(=O)(=O)c1ccccc1NC(=O)c1c(O)c2ccccc2[nH]c1=O	18.4
Cc1cccc(C(=O)NCCN2CCOCC2)c1[N+](=O)[O-]	4.8
CC(=O)/C=C(\C)Nc1c(C)n(C)n(-c2ccccc2)c1=O	22.6
Cc1c(C(=O)N(C)C)c2ccc(Cl)cc2n1O	15.6
O=C(CNC(=O)c1ccccc1F)NCCN1C(=O)S/C(=C\c2ccc3c(c2)OCO3)C1=O	-13.7
COC(=O)c1ccccc1OCCCOc1ccc(C=O)cc1OC	-4.02
Cc1nc(C)c(/C(O)=C/c2nc3ccccc3oc2=O)s1	13.2
CCc1ccc(OCc2nnc(SCCN3CCOCC3)n2CC)cc1.O=C(O)C(=O)O	-22.6
Cc1nc(N2CCOCC2)c2c(C)c(C(=O)Nc3ccc(F)cc3Cl)sc2n1	-3.4
COc1ccc(NC(=S)N2CCN(CCN=CC3=C(O)CC(c4ccccc4)CC3=O)CC2)cc1 (stereo not shown)	-45.7
Cc1ccc(CSc2nc(-c3ccccc3)c(C#N)c(=O)[nH]2)cc1	15.2
O=C1C=C(c2ccccc2)CC(/C=C/c2ccccc2)C1 (stereo not shown)	-2.91

SMILES	hERG current change (%, negative = inhibition) at 10uM [%]
Clc1ccc2nnnc(-c3ccccc3)c2c1	-9.98
CCN(CC)CCNC(=O)Cn1cnc2sc(C)c(S(=O)(=O)N3CCN(c4ncccn4)CC3)c2c1=O	10.5
Nc1c(C(=O)CSc2nncn2-c2ccccc2)c(=O)[nH]c(=O)n1C1CC1	2.23
CCC(CC)C(=O)Nc1c(C)n(C)n(-c2ccccc2)c1=O	6.19
CNC(=S)N1N=C(c2ccc(Br)cc2)CC1c1ccc(OC)cc1 (stereo not shown)	13.3
O=C(c1csc2ccccc12)N1CCN(c2ccccn2)CC1	-22.1
COc1ccc(C(=O)N2CCCC(CO)(Cc3ccccc3C)C2)o1 (stereo not shown)	-8.3
CCOC(=O)c1cnn(-c2ccccc2)c1NC(=O)c1ccc(C)cc1	-26.4
CCc1ccc(NC(=O)CCc2c(C)nn(-c3ccc(N4CCOCC4)nn3)c2C)cc1	-5.77
S=c1nc(-c2ccccc2Cl)[nH][nH]1	21.4
O=C(Nc1ccc(Cl)cc1)C1CCCN(C2=NS(=O)(=O)c3ccccc32)C1 (stereo not shown)	-60
COc1cc(NC(=O)c2cc3ccccc3cc2OC)ccc1NC(=O)c1cccs1	9.15
Cc1[nH]n(-c2ccccc2)c(=O)c1/C=N/NC(=O)c1cccc([N+](=O)[O-])c1	7.53
COc1ccc(C2C(CC(=O)O)=C(Nc3ccccc3)C(=O)N2c2ccccc2)cc1 (stereo not shown)	22
Cc1cccc(-c2sc(Nc3ccccc3)n[n+]2-c2ccccc2)c1.[Cl-]	-72
CCC(=O)N1CCc2cc(S(=O)(=O)NC(Cc3ccccc3)C(=O)NC3CCCC3)ccc21 (stereo not shown)	17.5
CC(=O)Nc1cccc(C(=O)OCC(=O)Nc2c(C)nn(-c3ccccc3)c2C)c1	12.1
CCOP(=O)(OCC)C(Nc1cccc([N+](=O)[O-])c1)c1ccccc1 (stereo not shown)	-18.4
O=C(Nc1ccccc1)C1CC=CCC1C(=O)OCC1CCCO1 (stereo not shown)	-5.39
Cc1cc(-c2nnc(SCC(=O)NC3CCCC3)o2)no1	-4.1
CCOc1ccccc1NC(=O)NC1CC2CCCC(C1)N2Cc1nnnn1CCc1ccccc1 (stereo not shown)	-5.67
Cc1[nH]c(=O)[nH]c(=O)c1/C=C/C(=O)OCC(C)C	-4.37
O=[N+]([O-])c1cn(-c2nc(-c3ccco3)cc(C(F)(F)F)n2)cn1	2.87
Cc1cc(C)n(Cc2nc3ccccc3n2C)n1	10.3
O=C(NCC1OCCc2ccccc21)c1ccc(NC(=O)c2ccccc2Cl)cc1 (stereo not shown)	17.5
CC(C)(C)c1cc(NC(=O)c2cccc(S(=O)(=O)N3CCOCC3)c2)no1	-6.32
Cc1nn(Cc2cccc(C(=O)NC3CCCCC3)c2)c(C)c1Cl	-16.1
